In PubChem BioAssay AID504333 (National Center for Advancing Translational Sciences (NCATS), 2011):
Values joined by “and” are separate entries in the source; they are usually repeats but may differ in a detail not shown here. Equal entries are not always repeated. About 16,000 (4.4%) of roughly 360,000 compounds were called active. The inconclusive results got no clear call from the source; some entries with a clear call stand among them for comparison. The call rests on the fitted dose curve; in most records, active means well fitted inhibition curve with a large enough effect; inconclusive means small, poorly fitted or top-dose-only effect; inactive means no such curve, though single readings can be large or run the other way. Potencies beside an inconclusive call are fits to weak or partial responses and may not hold up.

Each compound was assayed against Bromodomain adjacent to zinc finger domain protein 2B (Homo sapiens) (UniProt Q9UIF8) (assay: qHTS Assay for Inhibitors of BAZ2B). Conditions: AlphaScreen BAZ2B-H3K14Ac peptide displacement; series mostly up to 114 µM.
Procedure, shortened: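 AlphaScreen luminescence quantifies BAZ2B engagement of H3K14Ac peptide; the protein and biotinylated peptide are both at 50 nM final, buffer PBS pH 7.4 with 0.01% Tween-20, all steps at room temperature.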
Further: nearly all actives have a fitted effect of over 60% in size.
Potency means the concentration at half of the fitted maximal effect; tags describe the fitted curve by direction and shape.

Chain of UniProt Q9UIF8 (Q9UIF8 whole entry, looked up, the tested form may be a part): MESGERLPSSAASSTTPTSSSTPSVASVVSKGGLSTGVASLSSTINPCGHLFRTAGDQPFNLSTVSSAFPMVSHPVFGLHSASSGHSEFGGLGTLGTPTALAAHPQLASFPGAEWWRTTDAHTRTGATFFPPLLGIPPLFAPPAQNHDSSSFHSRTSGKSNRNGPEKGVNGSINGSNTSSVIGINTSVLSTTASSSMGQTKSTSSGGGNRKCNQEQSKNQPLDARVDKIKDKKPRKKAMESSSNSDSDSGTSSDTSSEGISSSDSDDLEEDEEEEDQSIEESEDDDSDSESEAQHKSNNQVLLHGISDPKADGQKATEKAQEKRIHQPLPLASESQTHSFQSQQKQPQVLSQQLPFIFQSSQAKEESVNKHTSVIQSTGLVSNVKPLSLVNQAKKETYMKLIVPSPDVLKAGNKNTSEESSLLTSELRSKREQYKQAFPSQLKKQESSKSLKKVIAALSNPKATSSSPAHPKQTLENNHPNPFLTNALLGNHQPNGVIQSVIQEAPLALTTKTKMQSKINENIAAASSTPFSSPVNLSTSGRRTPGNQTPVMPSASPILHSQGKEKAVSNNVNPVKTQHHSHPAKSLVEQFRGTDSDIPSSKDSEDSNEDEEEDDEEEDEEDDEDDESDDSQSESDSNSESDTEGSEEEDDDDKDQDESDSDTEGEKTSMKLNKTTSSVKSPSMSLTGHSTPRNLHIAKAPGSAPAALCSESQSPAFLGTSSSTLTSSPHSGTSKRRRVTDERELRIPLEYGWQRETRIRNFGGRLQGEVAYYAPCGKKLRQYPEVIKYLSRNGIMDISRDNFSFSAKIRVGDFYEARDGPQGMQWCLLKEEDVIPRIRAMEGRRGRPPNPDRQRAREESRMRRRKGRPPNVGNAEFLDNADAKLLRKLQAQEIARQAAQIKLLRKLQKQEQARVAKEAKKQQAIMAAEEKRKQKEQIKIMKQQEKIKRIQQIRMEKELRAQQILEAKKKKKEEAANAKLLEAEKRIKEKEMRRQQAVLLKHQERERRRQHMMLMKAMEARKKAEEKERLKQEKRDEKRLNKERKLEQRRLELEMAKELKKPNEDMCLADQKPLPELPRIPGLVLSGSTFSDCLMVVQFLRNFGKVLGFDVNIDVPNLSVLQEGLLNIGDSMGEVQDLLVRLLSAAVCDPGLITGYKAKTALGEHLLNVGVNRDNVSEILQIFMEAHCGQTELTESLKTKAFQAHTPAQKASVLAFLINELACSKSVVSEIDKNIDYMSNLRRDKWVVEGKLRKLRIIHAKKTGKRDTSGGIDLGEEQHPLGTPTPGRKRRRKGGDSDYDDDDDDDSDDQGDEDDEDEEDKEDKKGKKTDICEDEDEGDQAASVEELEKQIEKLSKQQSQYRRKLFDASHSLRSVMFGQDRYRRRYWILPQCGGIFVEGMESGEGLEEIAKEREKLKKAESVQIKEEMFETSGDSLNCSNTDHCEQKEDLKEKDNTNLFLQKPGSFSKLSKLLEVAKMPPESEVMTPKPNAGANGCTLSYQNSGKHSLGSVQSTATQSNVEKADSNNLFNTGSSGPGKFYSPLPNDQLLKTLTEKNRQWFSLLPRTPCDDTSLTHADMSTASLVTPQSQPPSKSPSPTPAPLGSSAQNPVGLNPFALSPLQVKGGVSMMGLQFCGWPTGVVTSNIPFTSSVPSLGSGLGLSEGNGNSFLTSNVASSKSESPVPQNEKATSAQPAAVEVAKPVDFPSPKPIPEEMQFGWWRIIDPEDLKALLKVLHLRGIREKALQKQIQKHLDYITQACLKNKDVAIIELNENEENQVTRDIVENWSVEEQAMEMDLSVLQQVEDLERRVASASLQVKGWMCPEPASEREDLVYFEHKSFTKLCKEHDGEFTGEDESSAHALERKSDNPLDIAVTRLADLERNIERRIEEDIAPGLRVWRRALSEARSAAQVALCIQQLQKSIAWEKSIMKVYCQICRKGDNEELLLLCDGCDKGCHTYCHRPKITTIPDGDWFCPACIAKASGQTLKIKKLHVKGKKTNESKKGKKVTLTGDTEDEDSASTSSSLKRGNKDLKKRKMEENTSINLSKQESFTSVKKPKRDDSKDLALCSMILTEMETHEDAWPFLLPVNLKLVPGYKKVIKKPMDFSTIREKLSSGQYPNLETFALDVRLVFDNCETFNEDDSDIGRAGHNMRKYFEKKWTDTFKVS

SMILES | Potency
Cc1cccc(Cn2nnc3c2C(=O)c2ccccc2C3=O)c1 | active: 12.6 µM
COc1ccc2c(CNC3CCC(C)CC3)c(C(=O)O)n(Cc3ccccc3)c2c1 (stereo not drawn) | inconclusive: 70.8 µM [inhibitor, single point]
O=C(C(=O)N1CCCc2ccccc21)c1c[nH]c2ccccc12 | inactive
Cc1ccc2nc(CSc3nnc(Nc4ccccc4F)s3)cc(=O)n2c1 | inconclusive: 79.4 µM [inhibitor, single point]
COc1ccc(-n2c(Cc3ccccc3)nnc2SCc2ccc([N+](=O)[O-])cc2)cc1 | inconclusive: 44.7 µM [inhibitor, partial curve]
Cc1ccc(C)c(NC2=C(c3ccc(C(F)(F)F)cc3)C(=O)c3ccccc32)c1 | inconclusive: 28.2 µM [inhibitor, full curve]
C=C1CCN(c2ccc(C(=O)NCc3ccccc3)cc2[N+](=O)[O-])CC1 | inconclusive: 44.7 µM [inhibitor, partial curve]
C=CC[n+]1c(-c2ccc(OC)cc2)csc1NNC(=O)Nc1ccccc1 | active: 10 µM
COc1ccc(OC)c(-c2nc(CN3CCCCC3c3cccnc3)c(C)o2)c1 (stereo not drawn) | inactive
O=C(O)CCNS(=O)(=O)c1ccc2ccccc2c1 | inconclusive: 12.6 µM [inhibitor, single point]
Cc1cc(C(=O)COC(=O)CNC(=O)c2ccccc2)c(C)n1CC1CCCO1 (stereo not drawn) | inconclusive: 89.1 µM [inhibitor, single point]
COC(=O)C1=C(C(=O)OC)SC2(S1)C(C(=O)OC)=C(C(=O)OC)SC1=C2c2cc(C)ccc2NC1(C)C | inconclusive: 31.6 µM [inhibitor, partial curve]
Cc1ccc(NC(c2cccc(Cl)c2)c2nnc(-c3ccccc3)o2)cc1F (stereo not drawn) | inconclusive: 89.1 µM [inhibitor, single point]
CCCCc1nn2c(C)c(-c3ccc(OCC)cc3)nc2s1 | inconclusive: 89.1 µM [inhibitor, single point]
Cc1ccc(S(=O)(=O)N(C)c2ccc(C(=O)N3CCN(Cc4ccc5c(c4)OCO5)CC3)cc2)cc1 | inconclusive: 79.4 µM [inhibitor, single point]
COc1ccc(Cn2c(C)nc3ccc([N+](=O)[O-])cc3c2=O)cc1 | inconclusive: 89.1 µM [inhibitor, single point]
CCN(CC)S(=O)(=O)c1cccc(C(=O)OCC(=O)C23CC4CC(CC(C4)C2)C3)c1 | inactive
COc1ccccc1Nc1nc(-c2cccc([N+](=O)[O-])c2)nc2ccccc12 | inconclusive: 89.1 µM [inhibitor, single point]
COc1cccc(-n2c(=S)sc3c(=O)n(-c4ccccc4OC)c(=S)[nH]c32)c1 | inconclusive: 79.4 µM [inhibitor, partial curve]
COc1ccc(-c2nnc3sc(C4CCCCC4)nn23)cc1OC | inactive
CCN(CC)c1ccc(NC(=O)CN2CCN(c3nc(C)cc(C)n3)CC2)cc1 | active: 35.5 µM
CN(C)S(=O)(=O)c1ccc(NC(=O)c2ccccn2)cc1 | inactive
OCCN(Cc1ccccc1)Cc1ccc(C(F)(F)F)cc1 | inconclusive: 15.8 µM [inhibitor, full curve]

SMILES | Potency
OC(CN1CCN(C(c2ccccc2)c2ccccc2)CC1)c1ccccc1 (stereo not drawn) | inconclusive: 89.1 µM [inhibitor, single point]
N#CCCN(C(=O)COC(=O)c1ccc(S(=O)(=O)N2CCCC2)cc1)c1cccc(Cl)c1 | inactive
CCCn1c(SCC(=O)NC2CC2)nnc1-c1ccccn1 | inconclusive: 79.4 µM [inhibitor, single point]
CN1CCN(S(=O)(=O)c2ccc(Nc3ccc(F)cc3)c([N+](=O)[O-])c2)CC1 | inconclusive: 89.1 µM [inhibitor, single point]
CN(C)CCCN(C(=O)c1ccc(S(=O)(=O)N2CCc3ccccc32)cc1)c1nc2c(Cl)cccc2s1 | inconclusive: 31.6 µM [inhibitor, partial curve]
Cc1sc2nc(CSc3nc4ccccc4s3)[nH]c(=O)c2c1C | inconclusive: 50.1 µM [inhibitor, partial curve]
O=C(CCCCl)NC1=NN(c2ccccc2)C(=O)C1 | inconclusive: 89.1 µM [inhibitor, single point]
C=CCn1c(C)cc(C2=NNC(=NC(C)(C)C)SC2)c1C | inconclusive: 50.1 µM [inhibitor, partial curve]
Cc1ccc(Cn2c(C)c(CNCC(C)c3ccccc3)c(C(=O)O)c2C)cc1 (stereo not drawn) | inconclusive: 79.4 µM [inhibitor, partial curve]
COc1cc2c(cc1OC)C1(Nc3c-2c(-c2ccccc2)nn3-c2ccccc2)C(=O)Nc2ccccc21 (stereo not drawn) | inconclusive: 56.2 µM [inhibitor, partial curve]
CCOc1ccc(-c2cc3c(=O)n(Cc4nc(-c5ccccc5OCC)oc4C)ccn3n2)cc1Cl | inactive
Cc1ccccc1CN1CCC(n2nccc2NC(=O)c2ccc3c(c2)OCO3)CC1 | inconclusive: 89.1 µM [inhibitor, single point]
Cc1nnc2sc(SCC(=O)Nc3ccc(Br)cc3)nn2c1=O | active: 39.8 µM
CCc1ccc(OCC2c3cc(OC)c(OC)cc3CCN2C(=S)NCCOC)cc1 (stereo not drawn) | inconclusive: 31.6 µM [inhibitor, partial curve]
CCOC(=O)c1cccc(NS(=O)(=O)c2ccc3[nH]c4c(c3c2)CCCC4)c1 | active: 39.8 µM
C=CCOC(=O)C1=C(C)NC(SCC(=O)Nc2nccs2)=C(C#N)C1c1cccs1 (stereo not drawn) | inactive
COc1ccccc1C(CNc1ccc(S(=O)(=O)N2CCCC2)cc1[N+](=O)[O-])N(C)C (stereo not drawn) | inconclusive: 70.8 µM [inhibitor, single point]
Cc1ccc(C=Nc2ccccc2C(N)=O)cc1 | inconclusive: 7.08 µM [inhibitor, single point]
CCCCc1ccc(-n2nc3cc(Cl)c(NC(=O)c4ccc(OC)cc4)cc3n2)cc1 | inactive
Cc1nc2cc(C(F)(F)F)ccc2n1CCNc1nc(-c2ccc(F)cc2)cs1 | inconclusive: 89.1 µM [inhibitor, single point]
COc1cc(CNCc2ccc(SC)cc2)cc(OC)c1 | inconclusive: 89.1 µM [inhibitor, single point]
CC1S/C(=N/N=C/c2ccco2)N(Cc2ccc(F)cc2)C1=O (stereo not drawn) | inconclusive: 50.1 µM [inhibitor, partial curve]
Nc1ccc2ncccc2c1N | inconclusive: 89.1 µM [inhibitor, single point]

SMILES | Potency
C/C(=N\NC(=S)NCCc1ccccc1)c1ccc(Cl)cc1 | inconclusive: 79.4 µM [inhibitor, single point]
COc1ccc(/C=c2/sc3n(c2=O)C(c2ccccc2OC)C2=C(N=3)c3ccccc3CC2)cc1O (stereo not drawn) | inconclusive: 56.2 µM [inhibitor, single point]
CCC(CO)N=CC1=C(O)CC(c2ccccc2)CC1=O (stereo not drawn) | inactive
O=C(CN1CCN(C(=O)C2CCCO2)CC1)Nc1cc(Cl)ccc1Cl (stereo not drawn) | inactive
O=C(Cc1cccs1)NNC(=S)NC(=O)c1ccc(F)c(F)c1 | inactive
CCOC(=O)C1=C(C)N(C)C(=O)NC1c1cc2c(cc1[N+](=O)[O-])OCO2 (stereo not drawn) | inactive
COCCNc1oc(Cc2cccc3ccccc23)nc1C#N | inconclusive: 89.1 µM [inhibitor, single point]
C(=N\Nc1nc(N2CCCCC2)nc(N2CCCCC2)n1)/c1c[nH]c2ccccc12 | active: 39.8 µM
COc1ccc(NC(=O)c2[nH]c(C)c(C(C)=O)c2C)cc1S(=O)(=O)N1CCOCC1 | inconclusive: 89.1 µM [inhibitor, single point]
CCC(=O)c1ccc(OCC(=O)OCC(=O)c2cc(C)n(CC3CCCO3)c2C)cc1 (stereo not drawn) | inconclusive: 79.4 µM [inhibitor, single point]
CCOC(=O)c1nc(Nc2ccc(N3CCC(C)CC3)cc2)c2ccccc2n1 | active: 39.8 µM
O=c1c(=O)n(-c2ccccc2)ccn1Cc1c(F)cccc1Cl | inconclusive: 89.1 µM [inhibitor, single point]
COc1cc(CNCCSc2nnnn2C)ccc1OCc1ccc(C)cc1 | inconclusive: 89.1 µM [inhibitor, single point]
CC(=O)Nc1ccc(N(C(=O)Cc2c[nH]c3ccccc23)C(C(=O)NC2CCCCC2)c2ccco2)cc1 (stereo not drawn) | inconclusive: 50.1 µM [inhibitor, partial curve]
Oc1ccccc1Nc1nc(NCC2CCCO2)c2ccccc2n1 (stereo not drawn) | inconclusive: 44.7 µM [inhibitor, partial curve]
CC(=O)c1ccc(NC(=O)C(C)OC(=O)c2ccc(Br)o2)cc1 (stereo not drawn) | inactive
O=c1nc2n(c3ncccc13)CCCCC2 | inactive
COc1cc(C(CC(=O)Nc2cccc(C(C)=O)c2)N2Cc3ccccc3C2=O)cc(OC)c1OC (stereo not drawn) | inactive
O=C(CSc1n[nH]c(=O)[nH]c1=O)Nc1cccc(S(=O)(=O)N2CCOCC2)c1 | inactive
C[n+]1ccc(C(=O)N/N=C/c2ccco2)cc1 | inconclusive: 89.1 µM [inhibitor, single point]
CCOc1ccccc1NC(=O)CCc1nnc2ccc(NCc3ccco3)nn12 | inconclusive: 50.1 µM [inhibitor, partial curve]
CN(C)c1ccnc2c[cH-]cc12.[Fe].c1ccc(-[c-]2[c-](-c3ccccc3)[c-](-c3ccccc3)[c-](-c3ccccc3)[c-]2-c2ccccc2)cc1 (stereo not drawn) | active: 1.26 µM and active: 1.58 µM
